Measured values: PubChem BioAssay AID2675 (National Center for Advancing Translational Sciences (NCATS), 2010)
Among all 280,000 compounds or so, about 100 (0.036%) were called active. Inconclusive results, whose numbers are uncertain, are shown with a selection of clear calls. The call rests on the fitted dose curve; in most records, active means well fitted inhibition curve with a large enough effect in the signal ratio, with a control signal flat (not every such curve was filed as active); inconclusive means small, poorly fitted or top-dose-only effect, or effect the other way, or a change in a side signal; inactive means no such curve, though single readings can be large or run the other way; the % refers to the signal ratio. Potencies beside an inconclusive call are fits to weak or partial responses and may not hold up. “Side channel” marks fits to a control or component signal instead of the main read-out.

Biological target: Muscleblind-like protein 1 (Homo sapiens) (UniProt Q9NR56)
Assay: qHTS Assay for Inhibitors of MBNL1-poly(CUG) RNA binding
Conditions: TR-FRET MBNL1-His/biotin-(CUG)12 binding, 665/545 ratio; series mostly up to 57.5 µM
Summary of the method: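 TR-FRET between His-tagged MBNL1 and biotin-(CUG)12 RNA, detected with Tb anti-His antibody (0.055 ng/ul) and streptavidin-XL665 (5 nM), 60 min at room temperature. Compounds titrated 92 nM to 58 uM; 665/545 nm ratio normalized to buffer and complex controls.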
Potency means the concentration at half of the fitted maximal effect; tags describe the fitted curve by direction and shape or compound fluorescence and quenching.

UniProt Q9NR56, sequence (Q9NR56 whole entry, looked up): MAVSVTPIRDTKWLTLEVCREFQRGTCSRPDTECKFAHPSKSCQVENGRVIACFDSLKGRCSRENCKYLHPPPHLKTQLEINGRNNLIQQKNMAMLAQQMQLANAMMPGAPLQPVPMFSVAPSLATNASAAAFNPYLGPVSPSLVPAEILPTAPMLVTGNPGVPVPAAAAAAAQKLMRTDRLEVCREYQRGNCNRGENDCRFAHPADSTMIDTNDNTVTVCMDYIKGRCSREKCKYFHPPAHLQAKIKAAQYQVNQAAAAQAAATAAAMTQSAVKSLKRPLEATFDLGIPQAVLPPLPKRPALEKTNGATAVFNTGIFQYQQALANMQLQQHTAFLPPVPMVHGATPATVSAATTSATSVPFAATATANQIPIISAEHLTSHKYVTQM

Structure (SMILES) | Potency
CCCCOc1ccc(-c2nnc(-c3ccncc3)o2)cc1 | inactive
Nc1c(S(=O)(=O)O)cc(Nc2ccc(Nc3nc(Cl)nc(Nc4ccc(S(=O)(=O)O)cc4)n3)c(S(=O)(=O)O)c2)c2c1C(=O)c1ccccc1C2=O | inconclusive: 15.8 µM [quencher, side channel, partial curve]
Cc1ccc2nc(-c3ccc(-c4ccccn4)s3)cn2c1 | inconclusive: 7.08 µM [quencher, side channel, partial curve]
C/C(Cn1nnc([N+](=O)[O-])n1)=N\NC(=O)c1ccncc1 | inconclusive: 15.8 µM [quencher, side channel, partial curve]
COC(=O)/C(C#N)=C/c1c(N2CCCCCC2)nc2c(C)cccn2c1=O | inconclusive: 20 µM [quencher, side channel, partial curve]
Cc1ccccc1NC(=O)COC(=O)c1ccc(S(C)(=O)=O)c([N+](=O)[O-])c1 | inconclusive: 14.1 µM [quencher, partial curve]
CC(=O)c1ccccc1Oc1cc(NN2CCCCC2)c([N+](=O)[O-])cc1[N+](=O)[O-] | inconclusive: 25.1 µM [quencher, side channel, partial curve]
Cc1ccc(Cl)cc1NC(=O)CCS(=O)(=O)c1cccc2nonc12 | inconclusive: 4.47 µM [quencher, side channel, full curve]
Cc1ccc(C(=O)NC2CCCC2)s1 | inactive
CCC(C)c1ccccc1NC(=O)c1cc2cccc([N+](=O)[O-])c2[nH]1 (stereo unspecified) | inconclusive: 4.47 µM [quencher, side channel, partial curve]
Cc1cc(C)n(-c2ccc(C(=O)Nc3ccc(C)c(S(=O)(=O)N4CCOCC4)c3)cc2)n1 | inactive
O=C1C2C3C=CC(C4CC34)C2C(=O)N1/N=C/c1ccc(-c2ccc(F)cc2[N+](=O)[O-])o1 (stereo unspecified) | inconclusive: 15.8 µM [quencher, side channel, partial curve]
COc1ccc(OC)c(C(C(=O)NC2CCCCC2)N(C(=O)c2snc(C(N)=O)c2N)c2ccccc2OC)c1 (stereo unspecified) | inconclusive: 25.1 µM [fluorescent, side channel, partial curve]
CN(C)C(=O)COc1ccc2c(-c3ccccc3)cc(=O)oc2c1 | inconclusive: 15.8 µM [quencher, side channel, partial curve]
COc1ccc(NC(=O)/C(C#N)=C\c2ccc(N3CCOCC3)o2)cc1 | inconclusive: 17.8 µM [quencher, side channel, partial curve]
CC1(C)Cc2c(C#N)c(OCC(=O)c3ccc(Cl)cc3)nc(-c3ccoc3)c2CO1 | inactive
COc1cc(NC(=O)C2CCCN(S(=O)(=O)c3ccc4c(c3)CCCN4C(C)=O)C2)cc(OC)c1 (stereo unspecified) | inactive
Cc1c(Nc2ccc3nonc3c2[N+](=O)[O-])c(=O)n(-c2ccccc2)n1C | inconclusive: 12.6 µM [quencher, side channel, partial curve]

Structure (SMILES) | Potency
CC(C)Oc1ccc(C(=O)NC2=NCCS2)cc1 | inactive
CCN1/C(=C2\C(=O)N(C)C(=S)N2c2ccccc2)C=Cc2ccccc21 | inconclusive: 6.31 µM [quencher, side channel, partial curve]
CC1CCCCC1NC(=S)Nc1ccc(SC(F)F)cc1 (stereo unspecified) | inactive
COc1ccc(S(=O)Cc2ccc(C(=O)N3CCN(c4cccc(C)c4C)CC3)o2)cc1 (stereo unspecified) | inactive
Cc1ccc(/C=C(\C#N)C(=O)NC(C)c2ccccc2)o1 (stereo unspecified) | inconclusive: 25.1 µM [quencher, side channel, partial curve]
CC1(C)CC(=O)C(N=Nc2cccnc2)=C(O)C1 | inconclusive: 12.6 µM [quencher, side channel, partial curve]
C=CC12C=CC=CN1C(C(=O)OC)=C(C(=O)OC)C(C(=O)OC)=C2C(=O)OC (stereo unspecified) | inconclusive: 39.8 µM [quencher, side channel, single point]
COc1cc(/C=N/NC(=O)c2cccc([N+](=O)[O-])c2)ccc1OC(=O)c1ccco1 | inconclusive: 15.8 µM [quencher, side channel, partial curve]
COC(=O)c1cc(=O)n(CCc2ccccc2)c(=Nc2ccc(F)cc2)s1 | inconclusive: 39.8 µM [quencher, side channel, single point]
C/C=C/c1ccc(OCc2cc(=O)n3cc(C)ccc3n2)c(OC)c1 | inconclusive: 14.1 µM [quencher, side channel, partial curve]
CCOC(=O)C1CCN(C(=O)COC(=O)c2ccc3c(c2)C(=O)N(c2ccc(OCC)cc2)C3=O)CC1 | inconclusive: 3.55 µM [quencher, side channel, full curve]
COc1ccccc1NC(=S)NCc1ccc2c(c1)OCO2 | inconclusive: 0.112 µM [quencher, side channel, full curve, poor fit]
COC(=O)c1cc2ccccn2c2c(C(=O)OC)c(C(=O)OC)cc1-2 | inconclusive: 2.51 µM [quencher, side channel, full curve]
COc1cc(NC(=O)C2CCN(S(=O)(=O)c3cccc4nonc34)CC2)cc(OC)c1 | inconclusive: 10 µM [quencher, side channel, partial curve]
O=C(N/N=C\c1ccc(OCC(=O)N2CCCC2)cc1)C(=O)Nc1ccccc1F | inconclusive: 8.91 µM [quencher, side channel, partial curve]
NC(=O)C1CCN(C(c2ccccc2)c2nnnn2C2CCCC2)CC1 (stereo unspecified) | inconclusive: 79.4 µM [inhibitor, single point]
O=C(O)CCCn1cc(NC(=O)COc2ccc([N+](=O)[O-])cc2)cn1 | inconclusive: 3.55 µM [quencher, side channel, partial curve]
COc1ccc(/C=C(/NC(=O)c2ccccc2OC)C(=O)Nc2ccc(C(=O)O)cc2)cc1 | inconclusive: 17.8 µM [quencher, side channel, partial curve]
